Results taken from the BET-seq Pho4 binding data (Le et al. 2018).
The other results are listed elsewhere or left out. The energies were worked out here from pooled read counts, against the library average; single values are noisy.

What follows are sequences tested against T1, Pho4 (S. cerevisiae) (UniProt P07270) (assay: relative binding free energy (BET-seq); higher = weaker binding). Conditions: reference: library average.
T1 sequence: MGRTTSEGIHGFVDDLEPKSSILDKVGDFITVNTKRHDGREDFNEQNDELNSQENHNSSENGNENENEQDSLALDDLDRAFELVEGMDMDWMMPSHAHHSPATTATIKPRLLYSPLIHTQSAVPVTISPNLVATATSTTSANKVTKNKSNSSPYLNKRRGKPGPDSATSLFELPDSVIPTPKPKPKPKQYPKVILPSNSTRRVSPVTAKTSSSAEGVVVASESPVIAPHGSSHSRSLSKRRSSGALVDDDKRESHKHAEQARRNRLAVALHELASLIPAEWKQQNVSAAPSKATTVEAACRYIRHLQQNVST

| Sequence | relative binding free energy [kcal/mol] |
| --- | --- |
| CTGGGCACGTGGTAGA | -0.25 |
| GATGTCACGTGTCCGG | 0.18 |
| GACTTCACGTGGGGCT | 0.38 |
| GTTTACACGTGAGGTA | 0.38 |
| GTTTGCACGTGTACGT | 0.13 |
| GTTTGCACGTGGCTCG | 0.05 |
| TTTACCACGTGGTGAT | -0.04 |
| ATGAGCACGTGGGCGG | -0.27 |
| AGGGTCACGTGCGTGA | 0.08 |
| GAGGGCACGTGCGCGT | -0.28 |
| GGCTTCACGTGGAGAG | 0.26 |
| TAGGGCACGTGTACTA | -0.15 |
| TGGTGCACGTGTTCAT | 0.02 |
| GTGGACACGTGGTGTT | 0.02 |
| GGTTACACGTGAGAGG | 0.39 |
| TCGGGCACGTGTGTCG | -0.01 |
| TTGGGCACGTGTCATC | 0.11 |
| TAGTGCACGTGAAGGC | 0.17 |
| ATTATCACGTGATGGT | 0.22 |
| GGAGTCACGTGGCCGG | 0.06 |
| ACGTTCACGTGAGGGA | 0.3 |
| TGCCTCACGTGTATGT | 0.24 |
| ATGGGCACGTGTGGGT | 0.05 |

| Sequence | relative binding free energy [kcal/mol] |
| --- | --- |
| GCTCTCACGTGAGTGG | 0.4 |
| CTAGACACGTGTGGTG | 0.1 |
| GTAAGCACGTGAATGG | 0.25 |
| AGGGTCACGTGTGTTT | 0.16 |
| ATGAGCACGTGGTTGA | -0.07 |
| TTTGACACGTGCTGTA | -0.09 |
| GGAGTCACGTGAAGTA | 0.47 |
| GGTGGCACGTGACGCG | 0.03 |
| TGGGTCACGTGATCAT | 0.19 |
| TATTTCACGTGATGTC | 0.35 |
| TGGCGCACGTGGAGAT | -0.1 |
| GAAGTCACGTGGGGAA | 0.15 |
| TGGGACACGTGTGATG | 0.2 |
| TAAGTCACGTGGGGTG | -0.01 |
| TAGGCCACGTGGTGGT | -0.15 |
| CATTTCACGTGGTGTG | 0.19 |
| TCCGTCACGTGGTGAG | 0.06 |
| TTCGTCACGTGTGTGG | 0.09 |
| GGTTACACGTGATCGT | 0.17 |
| TAGCTCACGTGTGTTG | 0.21 |
| GTAGGCACGTGTAGAA | -0.02 |
| GTGTTCACGTGTTGCT | 0.24 |
| GGCGTCACGTGCGGTA | 0.07 |

| Sequence | relative binding free energy [kcal/mol] |
| --- | --- |
| CAGTTCACGTGGGTTT | 0.29 |
| TGTAGCACGTGACTTG | 0 |
| ATTGGCACGTGCTTAG | -0.34 |
| TTTGACACGTGTACGG | 0.02 |
| TAAGTCACGTGCGGAG | 0.09 |
| AGCGTCACGTGTAATT | 0.12 |
| TTTCGCACGTGTTGAG | -0.11 |
| TAATGCACGTGGGCGA | -0.13 |
| GGTTCCACGTGGGGCA | 0.05 |
| TTAATCACGTGGATGA | 0.32 |
| GTAGGCACGTGTGCTG | -0.07 |
| GTGACCACGTGGGGGC | -0.14 |
| AGGATCACGTGAGGAT | 0.21 |
| GTGAACACGTGATTTG | 0.01 |
| CGTTACACGTGGTGCG | -0.12 |
| CAGGTCACGTGGGTCA | 0 |
| GCGTTCACGTGAGTAT | 0.45 |
| CGGCTCACGTGTGGCG | 0.39 |
| GGTGTCACGTGTCGTT | 0.19 |
| GGATCCACGTGTTGGG | 0.01 |
| GAAGGCACGTGTTGTA | -0.02 |
| CGTTACACGTGGAGAT | 0.3 |
| TGTGTCACGTGTGGAC | 0.1 |

| Sequence | relative binding free energy [kcal/mol] |
| --- | --- |
| TTGGGCACGTGCCAGG | -0.17 |
| CGCGTCACGTGGTATT | 0.09 |
| GGCGGCACGTGTGGTA | -0.04 |
| GGTATCACGTGCGTAT | 0.19 |
| TTGTTCACGTGGCCTA | 0.17 |
| TAGATCACGTGGTTTA | 0.12 |
| TCGTTCACGTGTGAAT | 0.33 |
| TGGCACACGTGGGTTT | 0 |
| CAGGGCACGTGTAGTT | -0.09 |
| GTAAACACGTGTGAGG | 0.18 |
| GAGGCCACGTGCGGGT | -0.01 |
| TTTATCACGTGGCGGA | 0.08 |
| GTGATCACGTGTGGTC | 0.29 |
| TTAGGCACGTGAAGCT | 0 |
| TGGTGCACGTGTCTTA | -0.11 |
| AATAGCACGTGAGGGG | 0.27 |
| TATTTCACGTGACATT | 0.27 |
| TATTACACGTGGCGTA | 0.01 |
| TGGTGCACGTGCAAAT | 0.02 |
| CGAGGCACGTGATGTA | -0.04 |
| CTATACACGTGTAAGG | 0.23 |
| TTTTGCACGTGTGGGC | 0.09 |
| GGTTTCACGTGGGCAT | 0.06 |

| Sequence | relative binding free energy [kcal/mol] |
| --- | --- |
| TTTAACACGTGCTGGC | 0.08 |
| CGTGGCACGTGTGTGC | -0.1 |
| CGTAGCACGTGGGCTT | -0.12 |
| GTGTACACGTGTTCAG | 0.14 |
| TTTGTCACGTGGTTTT | 0.11 |
| GCTTGCACGTGGGGAT | -0.17 |
| TTTGGCACGTGTGGCT | 0.11 |
| AAGTTCACGTGGATCT | 0.37 |
| GTTAGCACGTGGCGTG | -0.17 |
| TTCTGCACGTGGTGGG | 0.01 |
| CTTTGCACGTGCTGTG | -0.06 |
| TGGTACACGTGCTGTG | 0.06 |
| GGTGACACGTGTTACT | 0.15 |
| GATTTCACGTGGATAA | 0.32 |
| GTGTGCACGTGTTGAG | 0.02 |
| AGGGGCACGTGGTGGC | -0.13 |
| ATTGCCACGTGATTGG | 0.2 |
| ATTACCACGTGTTGAG | 0.08 |
| TTGCACACGTGTGATG | 0.11 |
| TATGACACGTGGACTG | 0.06 |
| AGGTTCACGTGGCGCT | 0.23 |
| AAAGTCACGTGTAGTA | 0.04 |
| GCGAGCACGTGGATGG | -0.1 |
